# Test results taken from the BET-seq Pho4 binding data (Le et al. 2018).
# This is one part of the list. These are noisy estimates, calculated here from bound and input reads.
# Target: T1, Pho4 (S. cerevisiae) (UniProt P07270)
# T1 sequence: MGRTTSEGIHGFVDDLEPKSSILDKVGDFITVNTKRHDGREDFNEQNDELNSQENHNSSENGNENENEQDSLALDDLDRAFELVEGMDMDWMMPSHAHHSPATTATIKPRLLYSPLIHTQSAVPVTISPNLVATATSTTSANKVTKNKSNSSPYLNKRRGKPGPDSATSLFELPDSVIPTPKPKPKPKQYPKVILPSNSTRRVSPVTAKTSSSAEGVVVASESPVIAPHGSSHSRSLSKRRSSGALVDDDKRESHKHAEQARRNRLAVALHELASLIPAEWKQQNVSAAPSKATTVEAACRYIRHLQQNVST
# Experiment: relative binding free energy (BET-seq); higher = weaker binding
# Conditions: reference: library average
row,Sequence,relative binding free energy [kcal/mol]
1,GAGAGCACGTGCGGGA,-0.11
2,ATTGGCACGTGGGACG,-0.22
3,GGTGTCACGTGGGTAA,0.01
4,TAGGACACGTGTAGGT,0.17
5,TGTTACACGTGGTTGT,0.07
6,TCAGGCACGTGGTAGA,-0.16
7,TATTTCACGTGGAGTT,0.24
8,TAGGGCACGTGCGACG,0.01
9,ATAGGCACGTGTCAGG,-0.01
10,CTTGGCACGTGAATTA,0.39
11,TTTAACACGTGTCGTA,-0.08
12,TTATTCACGTGGCCGG,0.24
13,AGGGGCACGTGTGGAA,0.03
14,TGATGCACGTGAGGTG,0.22
15,GTAACCACGTGGCGGT,-0.05
16,TGTTGCACGTGAGTGG,0.26
17,TAGTTCACGTGTATCA,0.14
18,TGAGGCACGTGGTTCG,-0.25
19,GTTCTCACGTGTTTGG,0.37
20,GGGTGCACGTGGGACA,-0.13
21,TGGCTCACGTGGAGTG,0.16

row,Sequence,relative binding free energy [kcal/mol]
1,GGCTACACGTGTGTAG,0.13
2,GTAGACACGTGGTCAT,0.07
3,GAGGACACGTGTGTGA,0.22
4,GCCTTCACGTGGTGGG,0.27
5,TTCTGCACGTGGATGA,0.03
6,TGCAGCACGTGGGTAG,-0.17
7,CTAAACACGTGTGGGG,0.05
8,TGGATCACGTGGGTAC,0.1
9,TTCGCCACGTGGAGGG,-0.13
10,CCGGGCACGTGGAAGG,0.15
11,AGATTCACGTGAGTGC,0.37
12,AGGGGCACGTGGTCGG,-0.24
13,TTTAACACGTGGGATG,-0.15
14,GAGATCACGTGGGAAG,0.23
15,AATTGCACGTGGTTGA,0
16,TTTGGCACGTGGTATT,-0.08
17,TCAATCACGTGTGTGT,0.21
18,CTGGTCACGTGTCGTG,0.03
19,CTTGACACGTGGGGAA,-0.11
20,TTGAGCACGTGGATGC,-0.08
21,AAGTTCACGTGGCTGG,0.1

row,Sequence,relative binding free energy [kcal/mol]
1,AATTTCACGTGTAAAT,0.21
2,ATTCTCACGTGAAGGT,0.3
3,AGTGACACGTGTAGGG,-0.1
4,TTAGTCACGTGCTGTA,-0.05
5,GTTAGCACGTGTGAAA,-0.02
6,GTAGTCACGTGTAGTG,0.11
7,GACATCACGTGAGTGG,0.32
8,GGGTGCACGTGGGGAT,0.03
9,GTATGCACGTGCGTTA,-0.01
10,ATTCGCACGTGTGTGA,0.07
11,AATATCACGTGTTGAA,0.22
12,ACAATCACGTGTTGAG,0.39
13,TAAGGCACGTGGCTGT,-0.22
14,AGCGTCACGTGTTAGG,0.04
15,TTGTGCACGTGACTGA,0.1
16,GATGACACGTGGAGAG,0.16
17,GAATGCACGTGGGCTT,-0.18
18,GTTGTCACGTGTATAG,0.25
19,GGTGCCACGTGTGCTG,-0.1
20,CTGTGCACGTGTGGGC,0.04
21,ATAGTCACGTGGATTT,0.22
